Test results reported in PubChem BioAssay AID894 (National Center for Advancing Translational Sciences (NCATS), 2007).
Among all 150,000 compounds or so, about 6,500 (4.3%) were called active. The inconclusive results got no clear call from the source; some entries with a clear call stand among them for comparison. Calls follow the shape of the dose curve; as a rule, active = well fitted inhibition curve with a large enough effect (not every such curve was filed as active); inconclusive = small, poorly fitted or top-dose-only effect, or another doubt; inactive = no such curve, though single readings can be large or run the other way. Potencies of inconclusive entries are left out as doubtful fits.

Target: 15-hydroxyprostaglandin dehydrogenase [NAD(+)] (Homo sapiens) (UniProt P15428)
Sequence of UniProt P15428 (P15428 whole entry, looked up): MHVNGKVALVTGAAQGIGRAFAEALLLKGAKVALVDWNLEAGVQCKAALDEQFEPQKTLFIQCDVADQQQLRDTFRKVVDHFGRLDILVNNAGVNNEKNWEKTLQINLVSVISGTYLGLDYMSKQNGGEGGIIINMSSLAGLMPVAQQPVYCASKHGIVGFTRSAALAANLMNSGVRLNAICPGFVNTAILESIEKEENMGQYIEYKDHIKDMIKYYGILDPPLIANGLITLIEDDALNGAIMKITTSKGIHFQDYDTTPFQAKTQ
Assay: qHTS Assay for Inhibitors of HPGD (15-Hydroxyprostaglandin Dehydrogenase)
Settings: purified HPGD, NADH fluorescence kinetic, PGE2 substrate; activity change, negative = inhibition: hits give low values
Procedure, shortened: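 NADH formation kinetics: reaction with 30 uM PGE2 and 1 mM NAD+ (final), 20 nM enzyme, Tris-HCl pH 8 with Tween 20, after 15 min compound preincubation at room temperature. Fluorescence change, last versus first of five reads.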
% is scaled to controls: 0 for no effect and ±100 for the full control effect; potency is read from the fitted curve at half-maximal effect; tags tell the direction and shape of the fitted curve.

**Q.** How did the Potency turn out when `O=C(/C=C/c1c(F)cccc1Cl)Nc1ncccn1` was run?
**A.** inconclusive [inhibitor, partial curve, poor fit]

**Q.** Which Potency does the source give for `N=c1oc2ccccc2cc1-c1nc(-c2ccccc2)cs1` here?
**A.** inconclusive [inhibitor, partial curve]

**Q.** For `Cc1ccccc1OCC(=O)NC(=S)Nc1ccc(N2CCOCC2)c(Cl)c1`, which activity change, negative = inhibition is on record?
**A.** inactive: -25.6%

**Q.** Which Potency does the source give for `CCOC(=O)c1[nH]c2ccc(OCC)cc2c1NC(=O)CN1CCN(c2ccccn2)CC1` here?
**A.** inconclusive [inhibitor, partial curve]

**Q.** How did the Potency turn out when `CC(=O)n1c2ccccc2c2c1c1ccccc1n2C` was run?
**A.** inconclusive [inhibitor, partial curve]

**Q.** Which activity change, negative = inhibition does the source give for `CCCCCCCCCCCCOCC1CO1` (stereo not given) here?
**A.** inactive: -3.84%

**Q.** How did the activity change, negative = inhibition turn out when `COc1ccc(Cl)cc1N1C(=O)C2CCCN2C1c1ccc(F)cc1` (stereo not given) was run?
**A.** inactive: -7.64%

**Q.** With `CCOc1nc(-c2ccc(OC)cc2)ccc1-c1noc(C)n1` as the compound, how does the Potency read?
**A.** inconclusive [inhibitor, partial curve]

**Q.** For `Oc1ccc(N=Nc2nc(-c3ccccc3)c(-c3ccccc3)[nH]2)cc1`, which activity change, negative = inhibition is on record?
**A.** inactive: -6.4%

**Q.** `CCOC(=O)c1c(NC(=O)c2ccoc2C)sc(C(=O)N(C)C)c1C` was tested. Which Potency did it give?
**A.** inconclusive [inhibitor, partial curve]

**Q.** How did the Potency turn out when `COc1cccc(-c2nnc(N(C)C(=O)c3ccno3)s2)c1` was run?
**A.** inconclusive [inhibitor, single point]

**Q.** With `C[C@]1(C(=O)O)C=C[C@@H](Cc2ccccc2)N1C(=O)c1ccccc1` as the compound, how does the activity change, negative = inhibition read?
**A.** inactive: -6.93%

**Q.** With `Cc1ccc(C(=O)NCC(=O)OCC(=O)c2ccc3c(c2)OCCO3)cc1C` as the compound, how does the activity change, negative = inhibition read?
**A.** inactive: -15.7%

**Q.** Which Potency does the source give for `CC1CCN(C(=O)c2ccc(NS(C)(=O)=O)cc2)CC1` here?
**A.** active: 10 µM

**Q.** Which Potency does the source give for `COc1ccc(-c2cc(C(F)(F)F)nc(SCC(=O)N3CCOCC3)n2)cc1OC` here?
**A.** inconclusive [inhibitor, partial curve]

**Q.** With `COc1ccc(-c2nnc(-c3cccs3)o2)cc1OC` as the compound, how does the Potency read?
**A.** inconclusive [inhibitor, partial curve]

**Q.** `COc1ccccc1N1N=C(c2cccs2)CC1c1ccccc1` (stereo not given) was tested. Which Potency did it give?
**A.** inconclusive [inhibitor, partial curve]

**Q.** With `c1ccc(Oc2cccc(CN3CCOCC3)c2)cc1` as the compound, how does the Potency read?
**A.** active: 25.1 µM

**Q.** Which Potency does the source give for `CN(Cc1ccccc1)C(=O)CCSc1nc(-c2ccc3c(c2)OCO3)cc(C(F)(F)F)n1` here?
**A.** inconclusive [inhibitor, partial curve]

**Q.** How did the Potency turn out when `CCC(=O)Nc1ccc(C(=O)Nc2ccc3c(c2)C(=O)N(CC2CCCO2)C3=O)cc1` (stereo not given) was run?
**A.** inconclusive [inhibitor, partial curve]

**Q.** Which Potency does the source give for `Cc1cc(C=O)c(C)n1-c1ccc(N2CCCC2)c([N+](=O)[O-])c1` here?
**A.** active: 14.1 µM

**Q.** With `CC(C)(C)c1nc2scc(-c3cccs3)c2c(=O)o1` as the compound, how does the Potency read?
**A.** inconclusive [inhibitor, partial curve]

**Q.** With `CCOc1ccc(NC(=O)N2CCC(NC(=O)C(Cc3ccc(OC)c(OC)c3)NC(C)=O)CC2)cc1` (stereo not given) as the compound, how does the activity change, negative = inhibition read?
**A.** inactive: 3.28%

**Q.** With `CCOC(=O)C1CCN(C(=O)c2sc3nc(-c4ccccc4)cn3c2C)CC1` as the compound, how does the activity change, negative = inhibition read?
**A.** inactive: -10.6%

**Q.** Which activity change, negative = inhibition does the source give for `COc1ccc(CCNC(=O)CCc2ccc(S(=O)(=O)NCC(C)C)cc2)cc1` here?
**A.** inactive: -3.36%

**Q.** Which activity change, negative = inhibition does the source give for `O=C(C(Cc1ccccc1)N1C(=O)c2ccccc2C1=O)N1CCc2ccccc21` (stereo not given) here?
**A.** inactive: -7.58%

**Q.** Which Potency does the source give for `O=c1[nH]c(SCc2ccccc2Cl)nc2c1CCC2` here?
**A.** active: 1 µM

**Q.** `NC(=O)[C@@H]1CCCNC1` was tested. Which activity change, negative = inhibition did it give?
**A.** inactive: -6.2%

**Q.** How did the activity change, negative = inhibition turn out when `CN(C)CCCNS(=O)(=O)c1ccc(Oc2ncc(C(F)(F)F)cc2Cl)cc1` was run?
**A.** inactive: -13.1%

**Q.** Which Potency does the source give for `O=C(Nc1cc2c3c(c1)C1CCCC1CN3CC1CCCC21)c1ccccc1` (stereo not given) here?
**A.** inconclusive [inhibitor, partial curve]

**Q.** For `CC(C)NC(=O)c1onc(CSc2ccc(F)cc2)c1C(=O)O`, which Potency is on record?
**A.** active: 39.8 µM

**Q.** How did the activity change, negative = inhibition turn out when `O=C(O)Cn1c2c(c3ccccc31)CCCC2` was run?
**A.** inactive: -24.4%

**Q.** Which Potency does the source give for `COc1ccc(-c2cc(C(F)(F)F)n3nc(C(=O)NCc4ccco4)cc3n2)cc1OC` here?
**A.** inconclusive [inhibitor, partial curve]

**Q.** How did the activity change, negative = inhibition turn out when `CC1=C(/C=C/C(C)=C/C=C/C(C)=C/C=C/C=C(C)/C=C/C=C(C)/C=C/C2=C(C)C(=O)CCC2(C)C)C(C)(C)CCC1=O` was run?
**A.** inactive: -12.8%

**Q.** Which Potency does the source give for `COc1ccc(-c2cc(N3CCCC3)n3ncnc3n2)cc1` here?
**A.** inconclusive [inhibitor, partial curve]

**Q.** `O=C(c1csnn1)N1CCC2(CC1)CN(c1ccccc1)C2` was tested. Which Potency did it give?
**A.** inconclusive [inhibitor, single point]

**Q.** `Brc1cc2c(cc1COc1ccc(-c3nn[nH]n3)cc1)OCO2` was tested. Which Potency did it give?
**A.** active: 25.1 µM

**Q.** For `CC(C)n1cnc2cc(NCc3ccco3)ccc21`, which Potency is on record?
**A.** inconclusive [inhibitor, partial curve]

**Q.** How did the activity change, negative = inhibition turn out when `CC1(C)CC(=O)C(N=Nc2c(Cl)cc(Cl)cc2Cl)=C(O)C1` was run?
**A.** inactive: -15.7%

**Q.** How did the activity change, negative = inhibition turn out when `CC(C)Oc1ccc(C2c3c(oc4ccccc4c3=O)C(=O)N2CCCN2CCOCC2)cc1` (stereo not given) was run?
**A.** inactive: -14.1%

**Q.** Which Potency does the source give for `Cc1c(N=Cc2ccc[nH]2)c(=O)n(-c2ccccc2)n1C` here?
**A.** inconclusive [inhibitor, partial curve]

**Q.** Which Potency does the source give for `CCc1c(C)nc(SCC(=O)Nc2ccc(Br)cc2)[nH]c1=O` here?
**A.** active: 14.1 µM

**Q.** Which Potency does the source give for `COC(=O)c1cc(Nc2cc(C)nc3ncnn23)cc(C(=O)OC)c1` here?
**A.** inconclusive [inhibitor, partial curve]

**Q.** How did the Potency turn out when `CCOC(=O)N1CCN(C(=O)Nc2ccc3nc(C)c(C)nc3c2)CC1` was run?
**A.** inconclusive [inhibitor, partial curve]

**Q.** How did the Potency turn out when `NC(=O)c1ccccc1NC(=O)/C=C/c1ccc(Cl)cc1` was run?
**A.** inconclusive [inhibitor, single point]

**Q.** For `Cn1c(SCC(=O)c2ccc(-c3ccccc3)cc2)nnc1-c1ccco1`, which activity change, negative = inhibition is on record?
**A.** inactive: -22.4%

**Q.** With `CC1(C)Cc2c(sc3ncn(N)c(=N)c23)CO1` as the compound, how does the activity change, negative = inhibition read?
**A.** inactive: -2.43%

**Q.** Which activity change, negative = inhibition does the source give for `Cc1ccc(CSCC(=O)N2CCN(Cc3ccc4c(c3)OCO4)CC2)cc1` here?
**A.** inactive: -7%

**Q.** With `COc1ccc(C(=O)n2cc(C(=O)c3cc(C)ccc3O)cn2)cc1OC` as the compound, how does the Potency read?
**A.** inconclusive [inhibitor, partial curve]

**Q.** How did the Potency turn out when `Cc1ccc(-c2nc3ncccn3c2NC(=O)C2CC2)cc1` was run?
**A.** inconclusive [inhibitor, partial curve]

**Q.** With `O=C(/C=C/c1ccc2c(c1)OCO2)Nc1nc2ccccc2s1` as the compound, how does the Potency read?
**A.** inconclusive [inhibitor, partial curve]

**Q.** For `CCOC(=O)c1c(NC(C)=O)no[n+]1[O-]`, which activity change, negative = inhibition is on record?
**A.** inactive: -6.1%

**Q.** Which Potency does the source give for `CC(NC(=O)COc1ccc(/C=N/NC(=O)C(=O)Nc2ccccc2Br)cc1)c1ccccc1` (stereo not given) here?
**A.** inconclusive [inhibitor, partial curve]

**Q.** How did the Potency turn out when `O=C(Cc1cccs1)NCc1ccccc1` was run?
**A.** active: 20 µM

**Q.** Which activity change, negative = inhibition does the source give for `COCCN(C(=S)Nc1cccc(OC)c1)C(C)c1cccs1` (stereo not given) here?
**A.** inactive: -18.5%

**Q.** For `CCN1CN(Cc2ccco2)CNC1=S`, which activity change, negative = inhibition is on record?
**A.** inactive: -7.24%

**Q.** Which Potency does the source give for `CCOC(=O)c1sc2nc(N3CCOCC3)c3c(c2c1N)CCN(Cc1ccccc1)C3` here?
**A.** inconclusive [inhibitor, partial curve]

**Q.** For `O=C(Nc1cc(Sc2ccccn2)cc([N+](=O)[O-])c1)c1ccc([N+](=O)[O-])cc1`, which activity change, negative = inhibition is on record?
**A.** inactive: -19.6%

**Q.** How did the activity change, negative = inhibition turn out when `Cc1nc2ccc(S(=O)(=O)NC(C(=O)N3CCC(C)CC3)C(C)C)cc2s1` (stereo not given) was run?
**A.** inactive: -1.85%

**Q.** How did the Potency turn out when `CC1CCC2C(C1)c1sc(=O)[nH]c1SC2(C)C` (stereo not given) was run?
**A.** inconclusive [inhibitor, single point]

**Q.** With `COc1ccc(/C(N)=N/OC(=O)c2cccc([N+](=O)[O-])c2)cc1` as the compound, how does the activity change, negative = inhibition read?
**A.** inactive: -5.98%

**Q.** For `COc1cc2nc(N3CCN(C(=O)[C@@H]4COc5ccccc5O4)CC3)nc(N)c2cc1OC`, which Potency is on record?
**A.** inconclusive [inhibitor, partial curve]

**Q.** With `CC(C)(C)c1csc(NC(=O)c2cccs2)n1` as the compound, how does the Potency read?
**A.** inconclusive [inhibitor, partial curve, poor fit]

**Q.** With `Cc1ccc(C2C3=C(CC(C)(C)CC3=O)Nc3n[nH]c(C)c32)cc1` (stereo not given) as the compound, how does the Potency read?
**A.** inconclusive [inhibitor, partial curve]

**Q.** Which Potency does the source give for `Cn1c(=O)n(C)c2cc(/C=N/NC(=O)c3ccc(Cl)cc3Cl)ccc21` here?
**A.** inconclusive [inhibitor, partial curve]

**Q.** For `O=C1O/C(=C/Br)CCC1c1cccc2ccccc12` (stereo not given), which Potency is on record?
**A.** active: 20 µM

**Q.** With `CCOc1cc(/C=C(\C#N)c2[nH]nc(N)c2C#N)ccc1O` as the compound, how does the Potency read?
**A.** active: 25.1 µM

**Q.** How did the activity change, negative = inhibition turn out when `COc1ccc(-n2c(C)cc(C(=O)CSc3ccc(NC(C)=O)cc3)c2C)cc1` was run?
**A.** inactive: -7.59%

**Q.** With `COc1cccc(C(=O)Nc2ccc(NC(=O)c3ccco3)nc2)c1` as the compound, how does the Potency read?
**A.** inconclusive [inhibitor, partial curve]

**Q.** For `COc1cc(SC)ccc1C(=O)NCc1ccc(C)cc1`, which Potency is on record?
**A.** active: 20 µM

**Q.** For `c1ccc(-c2ccc(-c3cnc4n3CCCCC4)cc2)cc1`, which Potency is on record?
**A.** inconclusive [inhibitor, single point]

**Q.** With `CCOc1ccccc1OCCCC(=O)Nc1sccc1C(N)=O` as the compound, how does the Potency read?
**A.** inconclusive [inhibitor, partial curve]

**Q.** For `O=C1c2cccc3cccc(c23)C(=O)N1CCCN(C(=O)c1cccs1)c1cccc(F)c1`, which Potency is on record?
**A.** inconclusive [inhibitor, partial curve]

**Q.** With `O=C(NC(=S)Nc1nc2ccccc2s1)c1cccs1` as the compound, how does the activity change, negative = inhibition read?
**A.** inactive: -18.2%

**Q.** Which Potency does the source give for `COCc1cc(C)nc(N2CCc3ccccc32)c1C#N` here?
**A.** inconclusive [inhibitor, single point]
